Reference: US7517874B2 (priority 2007, dated 2009)
pEC50: −log10 of the molar value. Where a name gives a salt, the structure may show the parent alone. Read-outs that look alike come from different tables or passages of the source.

Molecular target: human CB2 receptor (hCB2) (Homo sapiens, UniProt P34972)
Test: cell-based
Assay type: cell-based
Conditions: for +/− HCB2: agonist or inverse agonist at hCB2; for EC50: groups >100 nM-10 μM and >10 μM, cAMP, CHO-K1 hCB2, read-out: EC50 HCB2

human CB2 receptor (hCB2), sequence (P34972 whole entry): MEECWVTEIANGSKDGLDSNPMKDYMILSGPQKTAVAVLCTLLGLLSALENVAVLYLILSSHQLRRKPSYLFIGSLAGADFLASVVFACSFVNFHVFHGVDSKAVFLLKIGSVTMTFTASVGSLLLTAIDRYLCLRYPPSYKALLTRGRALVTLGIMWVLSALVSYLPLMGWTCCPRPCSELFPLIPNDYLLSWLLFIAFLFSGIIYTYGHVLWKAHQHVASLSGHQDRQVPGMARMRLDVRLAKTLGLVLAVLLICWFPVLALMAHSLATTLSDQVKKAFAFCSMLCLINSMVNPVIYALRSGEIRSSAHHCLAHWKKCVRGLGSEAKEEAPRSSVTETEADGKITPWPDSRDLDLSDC

CNC(=O)[C@H](CC(C)(C)C)NC(=O)c1nc(-c2cc(Cl)c(F)cc2F)n2c1CN(C)CCC2 [Compound 554, (S)-3-(5-chloro-2,4-difluorophenyl)-N-(4,4-dimethyl-1-(methylamino)-1-oxopentan-2-yl)-8-methyl-6,7,8,9-tetrahydro-5H-imidazo[1,5-a][1,4]diazepine-1-carboxamide]
+/− HCB2: +

CNC(=O)[C@@H](NC(=O)c1nc(C2=CCNCC2)n2c1CN(C)CCC2)C(C)(C)C [Compound 460, (S)-N-(3,3-dimethyl-1-(methylamino)-1-oxobutan-2-yl)-8-methyl-3-(1,2,3,6-tetrahydropyridin-4-yl)-6,7,8,9-tetrahydro-5H-imidazo[1,5-a][1,4]diazepine-1-carboxamide]
+/− HCB2: +

CNC(=O)[C@H](CC(C)C)NC(=O)c1nc(C2=CCCCO2)n2c1CN(C)CC2 [Compound 280, (S)-3-(3,4-dihydro-2H-pyran-6-yl)-7-methyl-N-(4-methyl-1-(methylamino)-1-oxopentan-2-yl)-5,6,7,8-tetrahydroimidazo[1,5-a]pyrazine-1-carboxamide]
+/− HCB2: +

CCCC(CO)NC(=O)c1nc(-c2ccccc2)n2c1CN(C)CC2 (stereo not drawn) [Compound 233, N-(1-hydroxypentan-2-yl)-7-methyl-3-phenyl-5,6,7,8-tetrahydroimidazo[1,5-a]pyrazine-1-carboxamide]
pEC50: < 5.00

CNC(=O)[C@@H](NC(=O)c1nc(-c2ccccc2)n2c1CN(Cc1cccn1C)CC2)C(C)(C)C [Compound 71, (S)-N-(3,3-dimethyl-1-(methylamino)-1-oxobutan-2-yl)-7-((1-methyl-1H-pyrrol-2-yl)methyl)-3-phenyl-5,6,7,8-tetrahydroimidazo[1,5-a]pyrazine-1-carboxamide]
pEC50: < 5.00

CN1CCCn2c(-c3cc(Cl)ccc3F)nc(C(=O)N[C@@H](CC(C)(C)C)C(N)=O)c2C1 [Compound 585, (S)-N-(1-amino-4,4-dimethyl-1-oxopentan-2-yl)-3-(5-chloro-2-fluorophenyl)-8-methyl-6,7,8,9-tetrahydro-5H-imidazo[1,5-a][1,4]diazepine-1-carboxamide]
+/− HCB2: +

CC12CCC(C1)C(C)(C)C2NC(=O)c1nc(-c2ccccc2)n2c1CN(C(=O)C1CCOC1)CC2 (stereo not drawn) [Compound 121, 3-phenyl-7-(tetrahydrofuran-3-carbonyl)-N-(1,3,3-trimethylbicyclo[2.2.1]heptan-2-yl)-5,6,7,8-tetrahydroimidazo[1,5-a]pyrazine-1-carboxamide]
+/− HCB2: +

CCS(=O)(=O)N1CCn2c(-c3ccccc3)nc(C(=O)N[C@H](C(=O)NC)C(C)(C)C)c2C1 [Compound 91, (S)-N-(3,3-dimethyl-1-(methylamino)-1-oxobutan-2-yl)-7-(ethylsulfonyl)-3-phenyl-5,6,7,8-tetrahydroimidazo[1,5-a]pyrazine-1-carboxamide]
+/− HCB2: +

C=C(C)c1nc(C(=O)N[C@H](C(=O)NC)C(C)(C)C)c2n1CCN(C)C2 [Compound 267, (S)-N-(3,3-dimethyl-1-(methylamino)-1-oxobutan-2-yl)-7-methyl-3-(prop-1-en-2-yl)-5,6,7,8-tetrahydroimidazo[1,5-a]pyrazine-1-carboxamide]
+/− HCB2: +

CNC(=O)[C@@H](NC(=O)c1nc(-c2ccccc2)n2c1CN(C)CC2)C(C)C [Compound 206, (S)-7-methyl-N-(3-methyl-1-(methylamino)-1-oxobutan-2-yl)-3-phenyl-5,6,7,8-tetrahydroimidazo[1,5-a]pyrazine-1-carboxamide]
+/− HCB2: +

Cc1ccc(-c2nc(C(=O)N[C@H](c3nc(C)no3)C(C)(C)C)c3n2CCCN(C(C)C)C3)c(F)c1 [Compound 523, (S)-N-(2,2-dimethyl-1-(3-methyl-1,2,4-oxadiazol-5-yl)propyl)-3-(2-fluoro-4-methylphenyl)-8-isopropyl-6,7,8,9-tetrahydro-5H-imidazo[1,5-a][1,4]diazepine-1-carboxamide]
pEC50: < 5.00

CNC(=O)[C@@H](NC(=O)c1nc(-c2cccc(N(C)C)c2)n2c1CN(C)CCC2)C(C)(C)C [Compound 382, (S)-N-(3,3-dimethyl-1-(methylamino)-1-oxobutan-2-yl)-3-(3-(dimethylamino)phenyl)-8-methyl-6,7,8,9-tetrahydro-5H-imidazo[1,5-a][1,4]diazepine-1-carboxamide]
pEC50: < 5.00

CCN1CCn2c(-c3ccccc3)nc(C(=O)Nc3ccccc3)c2C1 [Compound 152, 7-ethyl-N,3-diphenyl-5,6,7,8-tetrahydroimidazo[1,5-a]pyrazine-1-carboxamide]
pEC50: < 5.00

CNC(=O)[C@@H](NC(=O)c1nc(-c2ccc(Cl)cc2F)n2c1CN(c1ncccn1)CCC2)C(C)(C)C [Compound 482, 3-(4-chloro-2-fluorophenyl)-N-(3,3-dimethyl-1-(methylamino)-1-oxobutan-2-yl)-8-(pyrimidin-2-yl)-6,7,8,9-tetrahydro-5H-imidazo[1,5-a][1,4]diazepine-1-carboxamide]
+/− HCB2: +

CNC(=O)[C@@H](NC(=O)c1nc(-c2ccc(S(C)(=O)=O)cc2)n2c1CN(C)CCC2)C(C)(C)C [Compound 379, (S)-N-(3,3-dimethyl-1-(methylamino)-1-oxobutan-2-yl)-8-methyl-3-(4-(methylsulfonyl)phenyl)-6,7,8,9-tetrahydro-5H-imidazo[1,5-a][1,4]diazepine-1-carboxamide]
pEC50: < 5.00

COC(=O)N1CCn2c(-c3ccccc3)nc(C(=O)Nc3ccccc3)c2C1 [Compound 181, methyl 3-phenyl-1-(phenylcarbamoyl)-5,6-dihydroimidazo[1,5-a]pyrazine-7(8H)-carboxylate]
EC50: > 10000 nM

CC(C)(C)CNC(=O)c1nc(-c2ccccc2)n2c1CNCC2 [Compound 24, N-neopentyl-3-phenyl-5,6,7,8-tetrahydroimidazo[1,5-a]pyrazine-1-carboxamide]
+/− HCB2: +

CN1CCCn2c(-c3ccccc3)nc(C(=O)N[C@H](C(=O)O)C(C)(C)C)c2C1 [Compound 471, (S)-3,3-dimethyl-2-(8-methyl-3-phenyl-6,7,8,9-tetrahydro-5H-imidazo[1,5-a][1,4]diazepine-1-carboxamido)butanoic acid]
pEC50: < 5.00

CNC(=O)[C@H](CC(C)(C)C)NC(=O)c1nc(-c2cccc(F)c2)n2c1CN(C)CCC2 [Compound 548, (S)-N-(4,4-dimethyl-1-(methylamino)-1-oxopentan-2-yl)-3-(3-fluorophenyl)-8-methyl-6,7,8,9-tetrahydro-5H-imidazo[1,5-a][1,4]diazepine-1-carboxamide]
+/− HCB2: +

CC12CCC(C1)C(C)(C)C2NC(=O)c1nc(-c2ccccc2)n2c1CNCC2 (stereo not drawn) [Compound 39, 3-Phenyl-N-(1,3,3-trimethylbicyclo[2.2.1]heptan-2-yl)-5,6,7,8-tetrahydro-imidazo[1,5-a]pyrazine-1-carboxamide HCl]
+/− HCB2: +

CC(C)C[C@H](NC(=O)c1nc(-c2cc(Cl)ccc2F)n2c1CN(C)CCC2)C(N)=O [Compound 569, (S)-N-(1-amino-4-methyl-1-oxopentan-2-yl)-3-(5-chloro-2-fluorophenyl)-8-methyl-6,7,8,9-tetrahydro-5H-imidazo[1,5-a][1,4]diazepine-1-carboxamide]
+/− HCB2: +

CN1CCCn2c(-c3ccccc3)nc(C(=O)N[C@H](C(=O)NCC3CCOCC3)C(C)(C)C)c2C1 [Compound 479, (S)-N-(3,3-dimethyl-1-oxo-1-((tetrahydro-2H-pyran-4-yl)methylamino)butan-2-yl)-8-methyl-3-phenyl-6,7,8,9-tetrahydro-5H-imidazo[1,5-a][1,4]diazepine-1-carboxamide]
pEC50: < 5.00

CN1CCn2c(-c3ccccc3)nc(C(=O)NCC3CCOCC3)c2C1 [Compound 236, 7-methyl-3-phenyl-N-((tetrahydro-2H-pyran-4-yl)methyl)-5,6,7,8-tetrahydroimidazo[1,5-a]pyrazine-1-carboxamide]
pEC50: < 5.00

CNC(=O)[C@@H](NC(=O)c1nc(-c2cccc(Cl)c2F)n2c1CN(C)CCC2)C(C)(C)C [Compound 356, (S)-3-(3-chloro-2-fluorophenyl)-N-(3,3-dimethyl-1-(methylamino)-1-oxobutan-2-yl)-8-methyl-6,7,8,9-tetrahydro-5H-imidazo[1,5-a][1,4]diazepine-1-carboxamide]
+/− HCB2: +

CNC(=O)[C@@H](NC(=O)c1nc(-c2ccc(F)c(C#N)c2)n2c1CN(C)CCC2)C(C)(C)C [Compound 425, (S)-3-(3-cyano-4-fluorophenyl)-N-(3,3-dimethyl-1-(methylamino)-1-oxobutan-2-yl)-8-methyl-6,7,8,9-tetrahydro-5H-imidazo[1,5-a][1,4]diazepine-1-carboxamide]
+/− HCB2: +

CN1CCCn2c(-c3ccc(F)c(F)c3)nc(C(=O)N[C@H](C(N)=O)C(C)(C)C)c2C1 [Compound 581, (S)-N-(1-amino-3,3-dimethyl-1-oxobutan-2-yl)-3-(3,4-difluorophenyl)-8-methyl-6,7,8,9-tetrahydro-5H-imidazo[1,5-a][1,4]diazepine-1-carboxamide]
+/− HCB2: +

CN1CCn2c(-c3ccccc3)nc(C(=O)NCC(C)(C)CO)c2C1 [Compound 82, N-(3-hydroxy-2,2-dimethylpropyl)-7-methyl-3-phenyl-5,6,7,8-tetrahydroimidazo[1,5-a]pyrazine-1-carboxamide]
EC50: > 10000 nM

CNC(=O)[C@@H](NC(=O)c1nc(-c2cc(Cl)c(F)cc2F)n2c1CN(C)CCC2)C(C)(C)C [Compound 370, (S)-3-(5-chloro-2,4-difluorophenyl)-N-(3,3-dimethyl-1-(methylamino)-1-oxobutan-2-yl)-8-methyl-6,7,8,9-tetrahydro-5H-imidazo[1,5-a][1,4]diazepine-1-carboxamide]
+/− HCB2: +

CC(C)CN1CCn2c(-c3ccccc3)nc(C(=O)N[C@@H](CO)C(C)(C)C)c2C1 [Compound 68, (R)-N-(1-hydroxy-3,3-dimethylbutan-2-yl)-7-isobutyl-3-phenyl-5,6,7,8-tetrahydroimidazo[1,5-a]pyrazine-1-carboxamide]
pEC50: < 5.00

CN1CCCn2c(-c3cc(F)ccc3F)nc(C(=O)N[C@H](C(=O)N(C)C)C(C)(C)C)c2C1 [Compound 562, (S)-3-(2,5-difluorophenyl)-N-(1-(dimethylamino)-3,3-dimethyl-1-oxobutan-2-yl)-8-methyl-6,7,8,9-tetrahydro-5H-imidazo[1,5-a][1,4]diazepine-1-carboxamide]
+/− HCB2: +
